Source: the RNAGym collection of RNA variant scans (doi:10.1073/pnas.2313332121)
This sample is rich in variants without activity.

B1: TPR 5TU (parent)
chain: GGAUCUUCUCGAUCUAACAAAAAAGACAAAUCUGCCACAAAGCUUGAGAGCAUCUUCGGAUGCAGAGGCGGCAGCCUUCGGUGGCGCGAUAGCGCCAACGUUCUCAACUAUGACACGCAAAACGCGUGCUCCGUUGAAUGGAGUUUAUCAUG

Variants of: B1
Test: polymerase ribozyme fitness, log enrichment relative to wild type (log ratio); higher = more active; in vitro selection for triplet polymerase activity
Outline: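 Both subunits of a heterodimeric triplet polymerase ribozyme were given their own mutant library, built by PCR and transcribed. Each library was annealed with a biotinylated primer, the partner subunit and triplets, incubated frozen at −7 °C, and its extended constructs gel-excised, captured on streptavidin beads and amplified by RT-PCR, all in one round done in triplicate. Fitness is the logarithm of genotype enrichment relative to wild-type enrichment, with replicates averaged by inverse-variance weighting. That logarithm is base 2, and Illumina-sequenced genotypes needed ≥10 input reads and ≥1 read per output.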

Variant | polymerase ribozyme fitness (log ratio)
GGCGCUUCUCGAUCUAACAAAAAAGACAAAUCUGCCACAAAGCUUGAGUGCAUCUUCGGACGCAGAGGCAGCAGCCUUCGGUGGCGCGAUAUCGCCAACGUUCUCAACUAUGACACGCAAAACGCGUGCUCCGUUGAAUGGAGUUUAUCAUG | ≤ -4.2
GGCUCUUCUCGAUCUAACAAAAAAGACAAAUCUGCCCCAAAGCUUGAGAACAUCUUCGGAUGCAGGGGCGGCAGCCUUCGGUGGCGCGAUAGCGGCAACGUUCUCAACUAUGACACGCAAAACGCGAGCUCCGUUGAAUGGAGUUUAUCAUG | ≤ -4.2
GGCUCUUCUGGAUCUAACAAAAAAGACAUAUCGGCCAUAAAGCUUGAGAGCAUCUUCGGAUGUAGAGGCGGCAGCCUUCGGUGGCGCGAUAGCGCCAACGUUCUCAACUAUGACACGCAAAACGCGUGCUCCGUUGAAUGGAGUUUAUCAUG | ≤ -4.2
GGCUCUUCUCGAUCUGACAAAAAAGACAAAUCUGCCACAAAGCUUGAGAGCAUCUUCGGAUGCAGAGGCGGCAGCCUUCGGUGGCGCGAUAGCGCCAAGGUGCUCUACUAUGACACGCAAAACGCGUGCUCCGUUGAAUGGAGUUUAUCAUG | ≤ -4.2
GGCUCUUCUCGAUCUAACAAAAAAGACAAAUCUGCCACAAAGCUUCACAGCAUCUUCGGAUGCGGAGGCGGCAGCCUUCGGUGGCGCGAUAGCGCCAACUUUCUCAGCUAUGACACGCAAAACGCGUGCUCCGUUGAAUGGAGUUUAUCAUG | ≤ -4.2
GGCUCUUCUCGAUCUAACAAAAAAGACAAAUCUGCCACGAAGCUUGAGAGCAUCUUCGGAUGCAGAGGCGGCAGCCUUCGGUGGGGCGAUAGCGCCAACGGUCUCAACUAUGACAGGCAAAACGCGUGCUCCGUUGAAUGGAGUGUAUCAUG | ≤ -4.2
GGCUCUUCUCGAUCUGACAAAAAAGACAUAUCUGCCACAAUGCUUGAGAGCAUCUUCGGAUGCAGAGGCGGCAGGCUUCGGUGGCACGAUGCCGCCAACGUUCUCAACUAUGCCACGCAAAACGCGUGAUCCGUUGCAUGGAGUUUAUGAUG | ≤ -4.2
GGCUCUUCUCGAUCUAACAAAGAAGACGAAUCUGCCACAGAGCUUGAGAGCAUCUUCGGAUGCAGAGGCGGCAGCCUUCGGUGGCGCGCUGGCGCCAACGUUCUCAACUAUGACACGCAAAACGCGUGCUCCGUUGAAUGGUGUUUAUUAUG | ≤ -4.2
GGCUCUUCUCGAUUUGACAAAAAAGACAAAUCUGCCACAAAGCUUGAGAGCAUCUUCGAAUGCAGAGGCGGCAGCCUUCGGUGGCGAGAUAGCGCCAACGUUCUCAACUAUGACACGCAAAACGCGUGCUCCGUUGAAUGGAGUUUAUCAUG | ≤ -4.2
GGCUCUUCUCGAUCUAACAAAAAAGACAAAUCUGCCACAAAGCUUGAGAGCAUCUUCGGAUGCAGAGGCGGCAGCCUUCGGUGGCGCCAUAGCGCCAACGUUCUCAACUAUGACACGCAAAACGCGUGCUCCGUUGAAUGGAGUUUAUCAUG | -4.14
GGCUCUUCUCGAUCUCACAAAAAAGACAAAUCUGCCACAAAGCUUGAAAGCAUCUUCGGAUGCAGAGGCGGCAGCCUUCGGUGGCGCGAUAGCGCGAACGUUCUCAACUAUGACACGCAAAACGCGUGCUCCGUUGAAUGGAGUUUAUCAUG | -3.42
GGCUCUUCUCGAUCUAACAAAAAGGACAAAUCUGCCACAAAGCUUGAGAGCAUCUUCGGAUGCAGAGGCGGCGGCCUUCGGUGGGGCGAUAGCGCCAACGUUCUCAACUAUGACACGCAAAACGCGUGCUCCGUUGAAUGGAGUUUAUCAUG | ≤ -4.2
GGCUCUUCUCGAUCUAACAAAAAAGACAAAUCUGCCAAAAAGCUUGAGAGCAUCUUCGGAUGCAGAGGCGUCAGCCUUCGGUGGCGCGAUAGCUCCAACGGUCUCAACUAUGACACGCAAAACGCCUGCUCCGUUGAAUGGAGUUUAUCAUG | ≤ -4.2
GGCUAUUCUUAAUCUAACAAAAAAGACAAAUCUGCCACAAAGCUUGAGAGCAUCUUCGGAUCCAGAGGCGGCAGCCUUCGGUGGCGCGAUAGUGCCUACGUUCUCAACUAUGACACGCAAAACGCGUGCUCCGUUGAAUGGAGUUUAUCAUG | ≤ -4.2
GGCUCUUCUCGAUCUAAGAAAAAAGACAAAUCUGCCACAAAGCUUGAGAGCAUUUUGGGGUGCAGAGGCGGCAGCCUUCGGUGGCGGGAUAGCGCCAACGUUCUCCACUAUGACACGCAAAACGCGUGCUCCGUUGAAUGGCGUUUAUCAUG | ≤ -4.2
GGCUCUUCUCGAUCUAACAAAAAAGACAAAUCUGUCACAAAGCUUGAGAGCAUCUUCGGAUGCAGAGGCGGCAGACUUCGGUGGCGCGAUAGCGCCAACGUUCUCAACUAUGACACGCAAAACGCGUGGUCCGUUGAAUGGAGUUUAUCAUG | ≤ -4.2
GGCUCUUCUUGAUCUAACAAAAAAGACAAACCUGCCACAAAGCUUGAGAGCAUCUUCGGAUGCAGAGGCGGCAGCCUUCGGUGGGGCGAUAGCGCCAACGUUCUCAACUAUGAAACGCAAAACGCGUGCUCCGUUGAAUGGAGUUUAUCAUG | ≤ -4.2
GGCUCUUCUCUAUCUAACAAAAAAGACAAAUCUGCCAGAAACCUUGAGAGCAUCUUCGGAUGCAGAGGCGGCAGCCUUCGGUGGCACGAUAGCGCCAAAGUUCUCAACUAUGACACGCAAAACGCGUGCUCCGUUGAAUGGAGUUUAUCAUG | ≤ -4.2
GGCUCUUGUCCAUCUAACAAAAAAGACAAAUCUGCCACAAAGCUUGAGAGCAUUUUCGGAUGCAGAGGCGGCAGCCUUCGGUGGCGCGAUAGCGCUAACGUUCUCAACUAUGACACGCAAAACGCGCGCUCCGUUGAAUGGAGUUUAUCAUG | ≤ -4.2
